Experimental data: article PMC10726135
The other results are listed elsewhere or left out. At the low end of the ranking, values are background and their order means little. The protein was read in a cell extract, so binding may be indirect.

Each sequence was assayed against T1, HNF4alpha8 (COS-7 nuclear extract) (UniProt P41235-5) (assay: protein-binding microarray). Details: COS-7 nuclear extract on double-stranded Agilent 4x180k PBM; binding buffer, salt, pH and temperature not given; high values mean tight binding; double strand, one strand shown; sequences stand for … in …GCCTAGGGAGATTAGAGTATCGGTCGA.
T1 sequence: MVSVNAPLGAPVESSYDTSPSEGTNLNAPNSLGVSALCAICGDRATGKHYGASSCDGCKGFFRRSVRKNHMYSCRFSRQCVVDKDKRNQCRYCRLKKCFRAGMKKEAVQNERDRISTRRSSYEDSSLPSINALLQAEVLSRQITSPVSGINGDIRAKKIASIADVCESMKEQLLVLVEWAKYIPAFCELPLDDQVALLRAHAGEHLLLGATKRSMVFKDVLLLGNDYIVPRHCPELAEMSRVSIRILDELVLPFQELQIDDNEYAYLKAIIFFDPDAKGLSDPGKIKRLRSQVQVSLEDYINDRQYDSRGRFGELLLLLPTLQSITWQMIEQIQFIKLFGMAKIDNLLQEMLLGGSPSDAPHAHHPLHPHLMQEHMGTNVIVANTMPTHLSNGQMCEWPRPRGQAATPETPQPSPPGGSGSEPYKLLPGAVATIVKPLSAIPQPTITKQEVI
In the case of GTTAGATTAGTGTGCAGCTTTGTGTAAAAC, the binding signal (log2 normalized intensity) is reported as 0.626. For ATACTATTGATAACATCTAACAGCTGATGA, the binding signal (log2 normalized intensity) was -1.12. TACACAGCTGATGGAAGTTTGCCCTGGTTG was tested, and the binding signal (log2 normalized intensity) was 1.98. Work on TGCATTGGAGGCCAGATGCCAACTGTGGAC yielded a binding signal (log2 normalized intensity) of 1.31. ATTTGGCTTTGAATTCCACTTCTACCACTT gave a binding signal (log2 normalized intensity) of -0.21. Work on CCCATGGTCTGTAGAAGGCGCTGTGAAGCA yielded a binding signal (log2 normalized intensity) of -1.22. For CCCTGGTCTCTCTTACCCAACCAAAAACAA, the binding signal (log2 normalized intensity) was 3.38. In the case of CACCAAAGCCCAAGGGATCGTCCAAATACC, the binding signal (log2 normalized intensity) is reported as -1.26. In the case of CCTCTCAGGAATGTGGATGCTAAAAGTGAA, the binding signal (log2 normalized intensity) is reported as -0.262. AATTCCAGTTTGGACTTTGATCCTGATGAC showed a binding signal (log2 normalized intensity) of 10. With TCCTCATTCACCAGGCAATCAGCCTTAGGT the binding signal (log2 normalized intensity) was -1.32. With CAAGCCGTTCCCTGTACCTAGAATTCTTTC the binding signal (log2 normalized intensity) was -0.961. TGTAGGGAGTGGTTCCCACAGCCCAACTCG showed a binding signal (log2 normalized intensity) of -1.37. TTCCCTTATCAGGACTTTGTGATTACATTG gave a binding signal (log2 normalized intensity) of 2.21. Work on CGGCCGACGTGACCCGCCGCCCGAGGTCAC yielded a binding signal (log2 normalized intensity) of 3.58. For GGTGGTGACCCCAGACCTTAGTCTTCATGG, the binding signal (log2 normalized intensity) was 2.03. ACTCCCTTAAATAATGCATACGCTAGCTTT gave a binding signal (log2 normalized intensity) of -1.32. AGAGTTTTAAAGTATCCCATCCATTTCCCA showed a binding signal (log2 normalized intensity) of 0.56. GGAGGACCTCTGGATTACATACCCAAGTTC gave a binding signal (log2 normalized intensity) of -0.273. Work on CACTGTCTCAGGGTCCACATTCCAGGAATA yielded a binding signal (log2 normalized intensity) of 2.44. For GAGTTACACTATCGGCTTCCCTGGTCCTCA, the binding signal (log2 normalized intensity) was -1.27. In the case of CCTGCCTTTGTATAAGCCGTGCAAAGTTCA, the binding signal (log2 normalized intensity) is reported as 4.57. For CAAAGATAAGAAAAAAACAGCACAAAAATG, the binding signal (log2 normalized intensity) was -1.38. With GCAAGATAATGTCAAAAATCTTAAGGAGGA the binding signal (log2 normalized intensity) was -1.26. For CACCACAAGTTTGAACTGCACAGGCCTACT, the binding signal (log2 normalized intensity) was -1.33. Sequence CAACAGGGTTAAAAGCAAACCAAAAAGTTG has a binding signal (log2 normalized intensity) of -1.22. Work on GCTACTGCTCCACCTTTGAAATCTCAAATA yielded a binding signal (log2 normalized intensity) of -0.729. With TCTCTAGAATGAGCCTCTTCTTTAATAAGA the binding signal (log2 normalized intensity) was -1.32. Sequence AGTTTATCGAAAATCCCCCACCATTGTTAT has a binding signal (log2 normalized intensity) of 4.35. In the case of AAAAATGATGCTACTGGAGGTATAATATCT, the binding signal (log2 normalized intensity) is reported as 0.4. For ATTCCCGCCGCCTCCGCTGGGGGACGCGAC, the binding signal (log2 normalized intensity) was -1.39. For TTACCCTGCAGTGTGACCTTTGCCTTCTTG, the binding signal (log2 normalized intensity) was 8.09. TGGTAAAGATGACCAGCGTGTGGCGCCATT showed a binding signal (log2 normalized intensity) of -1.24. AGTGTACGTTGTACCCCACAGGTATTCTTT gave a binding signal (log2 normalized intensity) of 2.48. In the case of TGCTGATAAAGGGTGTGAGAGAGAAGGCAA, the binding signal (log2 normalized intensity) is reported as -1.28. With GCCTGGGCGCGCCTGCCCTTCGCTCCCCGA the binding signal (log2 normalized intensity) was 3.16. GAATTTTTCCCCTAGTTACAACTGTAAACA gave a binding signal (log2 normalized intensity) of 1.34. GATAAGCGTATTTCAACCTTTGATCTATAA showed a binding signal (log2 normalized intensity) of 6.82. ATATTCTGAGACAACACTCAGGATACCTAA gave a binding signal (log2 normalized intensity) of -1.38. With TGAGTATGAGTAGGCTGTAGAGGAGATGTG the binding signal (log2 normalized intensity) was 0.307. CTTTATCCAAATAACCATGCTCAACATCAA showed a binding signal (log2 normalized intensity) of -1.29. With CACCTCTGCTTATCTCAACTGATTTACCTC the binding signal (log2 normalized intensity) was 0.918. Work on AGAGGCTCCAGAAGGAATGCAGCCCTGTTG yielded a binding signal (log2 normalized intensity) of -1.33. GGCAGGCTTCGAAAAATGGGTCTGGGATGT gave a binding signal (log2 normalized intensity) of 0.36. For ATGGAGTGCTCTGAACCGTGTACCTGGGGC, the binding signal (log2 normalized intensity) was 1.06. Sequence CACTGCTTTGAAAAAACCTGTTCAGCCAGA has a binding signal (log2 normalized intensity) of -1.27. TCTCAGCCGCGCGGCTTCAGAGGCCAGCAG showed a binding signal (log2 normalized intensity) of -1.3. In the case of CCAACTAGAATGGAACTGAAGGCAGGAAAG, the binding signal (log2 normalized intensity) is reported as -1.38. AGCTGTGCGCTTAGTCCATGACGCAAGCGA gave a binding signal (log2 normalized intensity) of -0.944. For GGCCCCAGGAGACCCCGCGAGACGGGTGCG, the binding signal (log2 normalized intensity) was 1.04. With CTATCTGCTGGGGGCTGGGCCCCACAGTGC the binding signal (log2 normalized intensity) was -1.31. For CTGCCCTTCGTCCTGAGCAGTCCCTTCCCC, the binding signal (log2 normalized intensity) was 2.63. GACGCGCCGGCGCAGCCGCGCTCCGCCCCG was tested, and the binding signal (log2 normalized intensity) was -1.04. For TAGGGGTGGGATGGGGAGCAGTGGGAGGTG, the binding signal (log2 normalized intensity) was -1.24. In the case of CCCTGGGGAAGGCAGGTCTCTCTCATTCAC, the binding signal (log2 normalized intensity) is reported as -1.33. AGAATCTTATCAGCAGATAAGGGCAGAGAG was tested, and the binding signal (log2 normalized intensity) was -0.864. With CAGCACTCTCTGATTACACAGGCCTTATAG the binding signal (log2 normalized intensity) was -1.36. Work on CTTAGATAGCAGTGTGAGTGTCAGAGGCTA yielded a binding signal (log2 normalized intensity) of -1.26. Sequence ATTAACACAGCTCTAGAGGGCTGCTTATCT has a binding signal (log2 normalized intensity) of -1.31. GAAGAATCTGTATCAGCCTGTGACAAAGTC showed a binding signal (log2 normalized intensity) of -0.155. CCCAACAGACTTTCCCCCTATTTCCCTCTG gave a binding signal (log2 normalized intensity) of 2.58. TTTGTTGTTGAGCAAATCATAGTGTTTCTT was tested, and the binding signal (log2 normalized intensity) was 1.29. Work on GGACGCTTTAGAGAAACGCACTCGCCTCTC yielded a binding signal (log2 normalized intensity) of -1.42. AAAAGAAAGCCCATTAAATCTTCCCTCCTG showed a binding signal (log2 normalized intensity) of -1.34. TTGATCAGCATTCAAATGAGGGCAGGATGC gave a binding signal (log2 normalized intensity) of -0.178. In the case of ATCACAAACTTTAGTAGTCCAAAGCTCAGA, the binding signal (log2 normalized intensity) is reported as 1.38. Sequence TATCATCTTCCCTGTTCAAACTAAACCTAA has a binding signal (log2 normalized intensity) of -1.04. CAGCTAGTGAGATACGGCCTGGACTCCAAG was tested, and the binding signal (log2 normalized intensity) was 1.66. Sequence TTTGGAAAATATTGCCAATATCTGCCATCT has a binding signal (log2 normalized intensity) of -1.36. In the case of GTCTAAAGTTCAGTGAGATTAGGAAGTGTG, the binding signal (log2 normalized intensity) is reported as 1.87. GCTCACTCCTGGGACAAGGACTTTGGCTAG gave a binding signal (log2 normalized intensity) of 3.1. CTGAACCTTGGATCTCCTGCACCTGAACTT was tested, and the binding signal (log2 normalized intensity) was 2.23. Sequence TCTTAGCCATGTTCTCTAGAAACAGAGCCC has a binding signal (log2 normalized intensity) of -1.28.
